# According to PubChem BioAssay AID504845 (National Center for Advancing Translational Sciences (NCATS), 2011):
# Where “and” joins values, the source holds several entries; their conditions need not be identical. Identical values can stand only once. Out of some 390,000 compounds screened, about 150 (0.038%) were called active. Roughly 3% stayed inconclusive and do not appear here. Calls come from the whole dose curve; as a rule, active = well fitted inhibition curve with a large enough effect; inconclusive = small, poorly fitted or top-dose-only effect; inactive = no such curve, though single readings can be large or run the other way. Only a part is listed here, and it is no random draw. A structure can be active in one record and inactive in another. Non-standard residues stand in square brackets, D forms with d. Residues, ends and D or L forms follow the SMILES beside them. *: point of attachment. Sta = CC(C)C[C@H](N)[C@@H](O)CC(=O)O; Isovaleryl = CC(C)CC(=O)*
# Molecular target: Regulator of G-protein signaling 4 (Homo sapiens) (UniProt P49798)
# Assay: Inhibitors of Regulator of G Protein Signaling (RGS) 4: qHTS; note: nearly all actives have a fitted effect of over 75% in size
# Settings: Transcreener GDP fluorescence polarization, RGS4-accelerated GTP hydrolysis; series mostly up to 114 µM; activity change, negative = inhibition: at the top concentration
# Procedure, shortened: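 MLSMR compounds (23 nl, pin-transferred) preincubated 10 min at room temperature with a 500nM (2x) first reagent, then RGS4 at 900nM (2x) plus Transcreener GDP mix added; fluorescence polarization (620/688 nm) read before and after 90 min at 30 °C.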
# % is set by controls: 0 for no effect and ±100 for the full control effect; potency is the fitted concentration of half-maximal effect.
# UniProt P49798, sequence (P49798 whole entry, looked up): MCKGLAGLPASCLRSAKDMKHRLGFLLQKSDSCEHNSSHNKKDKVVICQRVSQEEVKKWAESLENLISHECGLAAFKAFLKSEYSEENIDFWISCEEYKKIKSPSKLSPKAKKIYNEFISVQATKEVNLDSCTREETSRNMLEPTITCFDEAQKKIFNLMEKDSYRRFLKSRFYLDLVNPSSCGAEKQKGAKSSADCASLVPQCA
SMILES,"activity change, negative = inhibition",Potency
COc1cc2c(CCNC(C)=O)c[nH]c2cc1O,inactive: -0.522%,
CCCCCCCCCCCCCCCCCCOC[C@H](COP(=O)([O-])OCC[N+](C)(C)C)OC,inactive: -0.397% [at 56.9 µM],
CNC(=O)[C@H]1O[C@@H](n2cnc3c(NCc4ccc(N)cc4)ncnc32)[C@H](O)[C@@H]1O,inactive: -11.7% [at 56.9 µM],
COc1cc2c(cc1O)CC[C@@H]1[C@@H]2CC[C@]2(C)[C@@H](O)CC[C@@H]12,,inactive
NC(=O)C1=CN(C2OC(COP(=O)(O)OP(=O)(O)OC[C@H]3O[C@@H](n4cnc5c(N)ncnc54)[C@H](OP(=O)(O)O)[C@@H]3O)C(O)C2O)C=CC1 (stereo partly specified),,active: 13.4 µM
O=S(=O)(/N=S1\CC=CCN1S(=O)(=O)c1ccccc1)c1ccccc1 (stereo unspecified),inactive: -125%,
Cc1ccc(N(CC2=NCCN2)c2cccc(O)c2)cc1,,inactive
CC[n+]1c(/C=C/C=C2/N(C)c3ccccc3C2(C)C)sc2ccccc21,,active: 21.2 µM
Cc1ccc2occ(C3NC(C(=O)O)CS3)c(=O)c2c1 (stereo unspecified),inactive: -7.33%,
COc1cc2nc(N3CCN(C(=O)OCc4ccccc4)[C@H](C(=O)NC(C)(C)C)C3)nc(N)c2cc1OC,inactive: -11.3%,
COc1ccc(C(=O)NCCCN2CCOCC2)cc1Br,inactive: 71.1%,
O=C(OCCN1CCOCC1)C1(c2ccccc2)CCCCC1,,inactive
Cc1cccc(Cn2nc(C)cc2NC(=O)CCCn2ccc([N+](=O)[O-])n2)c1,inactive: 61.9%,
Cc1ccc(Nc2c(-c3ccc(C)o3)nc3cnccn23)cc1,inactive: -94.1%,
Oc1ccc(NCc2ccc(OCc3ccccc3)cc2)cc1,inactive: -48.2%,
c1ccc2c(c1)CCCC2C1=NCCN1 (stereo unspecified),,inactive
CCNC(=O)[C@H]1O[C@@H](n2cnc3c(N)nc(NCCc4ccc(CCC(=O)O)cc4)nc32)[C@H](O)[C@@H]1O,inactive: 1.91%,
COc1ccc(Oc2ccc(N/C=C3/CCCC3=O)cc2)cc1,inactive: 3.17%,
C[C@](N)(Cc1ccc(O)cc1)C(=O)O,inactive: 2.25% [at 56.9 µM],
CCCC[C@@H]1CCCO[C@@](C(=O)NCc2ccc(C)o2)(C(F)(F)F)C1,inactive: -49.7%,
C[N+](C)(C)CCOP(=O)(O)OP(=O)([O-])OC[C@H]1O[C@@H](n2ccc(N)nc2=O)[C@H](O)[C@@H]1O,,inactive
O=C1NC(=O)C(c2ccccc2[N+](=O)[O-])=C1Nc1ccc(O)c(Cl)c1,inactive: -0.261%,
CCCCCCCCCCCCCCCC(=O)NCC(COP(=O)([O-])OCC[N+](C)(C)C)OCC (stereo unspecified),,active: 21.2 µM

SMILES,"activity change, negative = inhibition",Potency
Cc1ccccc1-c1nc(CS(=O)CC(=O)NCCc2ccc(Cl)cc2)c(C)o1 (stereo unspecified),inactive: -17.3%,
N#C/C(=C\c1ccc(O)c(O)c1)C(=O)Nc1ccccc1,inactive: -13.3%,
CCOC(=O)Cc1csc(NC(=O)Cc2ccccc2)n1,inactive: 56.5%,
C[C@H]1CCC2[C@](C)(CO)[C@@H](O)CC[C@]2(C)[C@@]12CCC(CO)(CCO)O2 (stereo partly specified),inactive: -5.53%,
OCC[C@@H]1C[C@H](O)[C@@H](O)[C@]2(CCc3ccccc3CO2)O1,inactive: -10.5%,
Cc1cccc(C(=O)N=c2c(C#N)cc3c(=O)n4cccc(C)c4nc3n2Cc2ccco2)c1,inactive: -41.1%,
CCOC(=O)CNC(=O)C1CCC(CNS(=O)(=O)c2cccc3nsnc23)CC1 (stereo unspecified),inactive: 70.5%,
O=C(Nc1nnc(-c2ccc(Cl)cc2)o1)Nc1ccccc1Cl,inactive: 57.7%,
O=c1cc2n(c(=O)[nH]1)CCC1=C2CCCC1,inactive: 58.2%,
O=C(NCc1ccncc1)c1cc(F)c(F)cc1Cl,inactive: 91.2%,
N=C(N)c1ccc(N=Nc2c(O)ccc3c2[nH]c2ccccc23)cc1,inactive: 66.1%,
O=C(Nc1cccc(NC(=O)c2cccs2)c1)c1ccc2c(c1)OCO2,inactive: 57.5%,
OCCN1CCN(CC/C=C2/c3ccccc3Sc3ccc(C(F)(F)F)cc32)CC1,inactive: -11.8%,
NCC(O)C1CCCCCCC1 (stereo unspecified),inactive: 1.19% [at 56.9 µM],
CN1CCC(=C2c3ccccc3C=Cc3ccccc32)CC1,inactive: -6.52%,
BrC(=C\c1ccccc1)/C=N/Nc1nc(N2CCOCC2)nc(N2CCOCC2)n1,inactive: -6.24%,
NNCCc1ccccc1,inactive: -21.4%,
O=C(NCC1CCCO1)/C(=C\c1ccccc1)NC(=O)c1ccccc1 (stereo unspecified),inactive: -14.2%,
C[C@H](NC(=O)[C@@H]1Cc2ccccc2CN1)C(=O)NCC1CCCO1 (stereo partly specified),inactive: -64.3% [at 56.9 µM],
CCCCC/C=C\C/C=C\CCCCCCCC(=O)O[C@@H](CO)COC(=O)CCCCCCCCCCCCCCCCC,,active: 2.67 µM
CCn1c(SCC(=O)N/N=C/C=C\c2ccccc2[N+](=O)[O-])nnc1-c1ccccc1,inactive: 28.8%,
Cc1c(NS(=O)(=O)c2ccccc2F)c(=O)n(-c2ccccc2)n1C,inactive: 58.2%,
C[C@@](N)(C(=O)O)[C@@H]1C[C@@H]1C(=O)O,,active: 23.8 µM

SMILES,"activity change, negative = inhibition",Potency
COC(=O)C1=C(C)NC(C)=C([N+](=O)[O-])C1c1ccccc1C(F)(F)F (stereo unspecified),,inactive
COc1cc(C(=O)OCCCN2CCCN(CCCOC(=O)c3cc(OC)c(OC)c(OC)c3)CC2)cc(OC)c1OC,,inactive
CCn1cc(C(=O)NCCCOC)c(=O)c2cc(S(=O)(=O)N3CCC(C)CC3)ccc21,inactive: 70.5%,
C=CCCC(=O)N1CCC(n2nccc2NC(=O)c2ccc(OC)cc2)CC1,inactive: 54%,
COc1ccc(OC)c(C(c2nnnn2CCC(C)C)N2CCN(C(=O)c3ccco3)CC2)c1 (stereo unspecified),inactive: 54.4%,
Cc1c(C(=O)NCCO)sc2nc3n(c(=O)c12)CCC3,inactive: 64.8%,
COc1ccc(C(CNC(=O)COc2ccccc2C)N2CCCCC2)cc1 (stereo unspecified),inactive: 56.7%,
O=C(Nc1ccc(-c2nc3ccccc3[nH]2)cc1)c1ccco1,inactive: -2.34%,
O=C(NCCN1CCOCC1)/C(=C\c1ccccc1Cl)NC(=O)c1ccccc1,inactive: 66.1%,
CCC(C)N(C)C(=O)c1cc2ccccc2c(-c2ccccc2Cl)n1 (stereo unspecified),inactive: -5.39%,
Cc1nc2ccc3nc(NC(=O)c4ccc5c(c4)OCCO5)sc3c2s1,inactive: -28.2%,
COC(=O)/C=C1/S/C(=N/NC(=O)c2ccc(OC)cc2)NC1=O,inactive: -2.85%,
Nc1ncnc2c1c(-c1ccc(Oc3ccccc3)cc1)cn2C1CCCC1,inactive: -2.18%,
CN1CCN(CCCN2c3ccccc3Sc3ccc(Cl)cc32)CC1,,inactive
N=c1c[n+](N2CCOCC2)[n-]o1,,inactive and active: 18.9 µM
Cc1ccc(NC(=S)N/C(=N/S(=O)(=O)c2ccccc2)c2ccccc2)cc1,inactive: 16.3% [at 11.4 µM],
CC(=O)[C@]1(O)Cc2c(O)c3c(c(O)c2[C@@H](O[C@H]2C[C@H](N)[C@H](O)[C@H](C)O2)C1)C(=O)c1ccccc1C3=O,inactive: -10.2%,
Cn1ccc2cc(NC(=O)Nc3cccnc3)ccc21,inactive: 276% [at 56.9 µM],
COc1ccc(CCN(C)CCCC(C#N)(c2cc(OC)c(OC)c(OC)c2)C(C)C)cc1OC (stereo unspecified),,inactive
O=C(/C=C/c1ccc(O)c(O)c1)OCCc1ccccc1,inactive: -8.43%,
C[C@H]1c2cccc(O)c2C(O)=C2C(=O)C3(O)C(O)=C(C(N)=O)C(=O)[C@@H](N(C)C)[C@@H]3[C@@H](O)[C@@H]21 (stereo partly specified),inactive: -36.4%,
N#CC1=C(N)C(C#N)(C#N)[C@H](c2cccnc2)[C@H]2CN(C(=O)OCc3ccccc3)CC=C12,inactive: -31.5%,
CCCCC[C@H](O)/C=C/[C@H]1[C@H](O)CC(O)[C@@H]1C/C=C\CCCC(=O)O (stereo partly specified),,active: 26.7 µM

SMILES,"activity change, negative = inhibition",Potency
CC(=O)O[C@H]1C(=O)[C@@]2(C)C([C@H](OC(=O)c3ccccc3)[C@]3(O)C[C@H](OC(=O)[C@H](O)[C@@H](NC(=O)c4ccccc4)c4ccccc4)C(C)=C1C3(C)C)[C@]1(OC(C)=O)CO[C@@H]1C[C@H]2O (stereo partly specified),inactive: -4.97%,
CCOC(=O)[C@@H]1[C@H]2COc3ccccc3[C@@H]2N2C(=O)N(c3ccc(C)cc3)C(=O)[C@@]12C,inactive: 1.55%,
CCCNCC(O)COc1ccccc1C(=O)CCc1ccccc1 (stereo unspecified),,inactive
COc1ccc(S(=O)(=O)Nc2cccc(-c3ccc(N4CCCCCC4)nn3)c2)c(OC)c1,inactive: -27.1% [at 56.9 µM],
COc1cc([C@@H]2c3cc4c(cc3[C@@H](O[C@@H]3O[C@@H]5CO[C@@H](C)O[C@H]5[C@H](O)[C@H]3O)[C@H]3COC(=O)[C@H]23)OCO4)cc(OC)c1O,inactive: 7.06%,
CN(C)c1nc(N(C)C)nc(N(C)C)n1,inactive: 13.7%,
CN1C(=O)/C(=C\c2cc(N=Nc3ccccc3)ccc2O)SC1=S,inactive: -40.7%,
Nc1nc(NCc2ccc(Cl)c(Cl)c2)c2[nH]cnc2n1,inactive: -3.15%,
COC(=O)C1=C(C)NC(C)=C(C(=O)OCCSc2ccccc2)C1C (stereo unspecified),,active: 37.7 µM
CC(C)CC(=O)N[C@H](C(=O)N[C@H](C(=O)N[C@@H](CC(C)C)[C@@H](O)CC(=O)N[C@@H](C)C(=O)N[C@@H](CC(C)C)[C@@H](O)CC(=O)O)C(C)C)C(C)C (Isovaleryl-VV[Sta]A[Sta]-OH),inactive: -14.4%,
CCOC(=O)C12CC1/C(=N/O)c1ccccc1O2 (stereo unspecified),inactive: 7.42% [at 56.9 µM],
CCOc1ccc(NC(=O)CCS(=O)(=O)c2ccc(Br)cc2)cc1,inactive: 31.9%,
C=CCN1CCc2c(cc(O)c(O)c2Br)[C@@H](c2ccccc2)C1,inactive: 5.74%,
CCC(=O)N1CCc2cc(S(=O)(=O)NC(C(=O)NCc3ccccc3)C(C)C)ccc21 (stereo unspecified),inactive: 58.6%,
N#C/C(=C\c1ccc(-c2ccc(C(=O)O)cc2)o1)c1nc2ccccc2[nH]1,inactive: 6.14%,
CC(=O)[C@H]1CCC2C3CC=C4C[C@@H](O)CC[C@]4(C)C3CC[C@@]21C (stereo partly specified),inactive: -4.22%,
Cc1cc(C)c(/C=C2\C(=O)Nc3ccccc32)[nH]1,inactive: -8.09%,
Cc1ccc(CNC(=O)CN(c2ccc(C)cc2)S(=O)(=O)c2c(C)nn(C)c2C)cc1,inactive: -5.8%,
CC(=O)O[C@H]1C(=O)[C@@]2(C)[C@H]([C@H](OC(=O)c3ccccc3)[C@]3(O)C[C@H](OC(=O)[C@H](O)C(NC(=O)c4ccccc4)c4ccccc4)C(C)=C1C3(C)C)[C@]1(OC(C)=O)CO[C@@H]1C[C@@H]2O (stereo partly specified),inactive: -3.49%,
COc1ccc(CCNC(=O)c2ccc3c(c2)N(Cc2ccc(F)cc2)CCS3)cc1OC,inactive: -0.545%,
C(#Cc1ccccc1)CN1CCN(c2ccccn2)CC1,inactive: -46.1%,
CC(=O)NCC(=O)N(C)C(C(=O)Nc1ccc(C(C)C)cc1)c1ccccc1 (stereo unspecified),inactive: 55.2%,
